Test results published in the supplement of paper PMC10126150.
Values marked as one replicate rest on one cluster of the flow cell; about a third of the high ones do not repeat.

Test system: ATP
Assay: switch fluorescence ratio, 500 uM ATP over buffer (Cy3 cluster intensity, sum of 5 cycles each) (fold (ratio)); higher = stronger signal-on switching upon ATP binding; sequences stand for … in TCGTCGGCAGCGTCAGATGTGTATAAGAGACAGTTTTTTTTTTTTTTTTTTTTTTTTT…TC
Conditions: aptamer strand: ATP DNA aptamer (quencher-CACCTGGGGGAGTATTGCGGAGGAAGG + anchor), 100 nM annealed; ATP concentration: 500 uM; one replicate
Summary of the method: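 Exposure to 500 uM ATP lasted 15 min at 22 °C before imaging, and a selection-buffer image was taken beforehand, for Cy3-labelled switching-strand clusters on a modified Illumina MiSeq flow-cell annealed to 100 nM quencher-labelled ATP aptamer. Five buffer/ATP cycles were run with NaOH stripping and re-annealing between them. The fluorescence ratio per cluster is summed target-cycle over summed buffer-cycle Cy3 intensity, averaged per switch-domain sequence. Clusters outside 100-1000 RFU were excluded.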

Row | Sequence | switch fluorescence ratio
1 | CGTTTCTTTC | 1.04
2 | ACACGAAATC | 1.33
3 | CATTGCCGGG | 1
4 | GTATGTTTAT | 0.997
5 | TATTGATAGG | 1.05
6 | TTTCTTAGG | 1.03
7 | GGCGTAGATG | 1
8 | CAAGATCCCT | 0.988
9 | GAGGGATAGG | 0.953
10 | GCATACTAGG | 1.05
11 | AGGTCGCCCC | 0.974
12 | GCTCCTTTTC | 1.09
13 | ATCTCTTGTG | 1.03
14 | AATGTCAAAA | 0.98
15 | GGTGGTTGCT | 0.98
16 | GCGGTATCT | 1.02
17 | ACTTTTGGTG | 1.04
18 | GTTCTCTTTA | 1.01
19 | CGGAGGTATC | 1.06
20 | CTATATGGTA | 1.01
21 | TTACGGCACT | 1.69
22 | ATGCTGGGG | 1.01
23 | GCGGAGAGCA | 1.01

Row | Sequence | switch fluorescence ratio
24 | AATGCCAGTC | 0.988
25 | GCTCATAGAG | 1.05
26 | GTGTTAATGT | 0.991
27 | ACATTATGCC | 1.07
28 | TGGAACGTAT | 1
29 | ATGTACAGTG | 1
30 | GACACCGACG | 1.51
31 | TAATTCCATG | 1.05
32 | TTGCCTATAT | 0.99
33 | TGAACAAGCA | 0.991
34 | GCACGCGTAA | 1.01
35 | AGGAGGAAG | 0.981
36 | GTGCTTAGTC | 0.963
37 | GTTGACTCG | 1
38 | GATGTGGATC | 1.05
39 | GCCCATCGGA | 0.987
40 | GGTCTATAAT | 0.999
41 | GATCGCAGGT | 1.08
42 | CCTTGGTCA | 1.08
43 | TTAAGCATCA | 1.09
44 | GGCCAATTTT | 1.03
45 | TTGTATTGTC | 1.04
46 | TTAACGGTGC | 1.04

Row | Sequence | switch fluorescence ratio
47 | TGGGCGATTG | 1.01
48 | TAGAGGGAGC | 1
49 | CCCACCTTCA | 1.87
50 | TGAAGGTTCG | 1
51 | AAAGTCGTCT | 1.19
52 | GAGAGGTGCA | 0.973
53 | TTATGAATG | 0.966
54 | ACCCTCCAAA | 1.48
55 | GCAAGAAGGA | 1.02
56 | GGAAGTGAG | 0.985
57 | CTTAGGCTTG | 1
58 | TGATGATTCG | 1.01
59 | TAAGGCGATT | 0.962
60 | CTGATAGGTC | 0.98
61 | GTTAGCAATT | 1.32
62 | CCGTTCCTGT | 1.05
63 | CGCCGCGGTG | 1.07
64 | TATGGTCGAA | 0.974
65 | TAATAGCGAT | 1.07
66 | TGCGGGAATG | 1
67 | TGCAATAGTC | 2.17
68 | TTATGTCCCG | 1
69 | TTTTGGTATG | 1.03

Row | Sequence | switch fluorescence ratio
70 | GCCGTTATTT | 0.947
71 | TTCCGGATCG | 1.05
72 | GCGTCCCATG | 1
73 | CATCGCTAGA | 1.03
74 | TCGTGTACAG | 0.946
75 | CCGTTCGGCG | 0.993
76 | TCGTATAGAA | 0.951
77 | TAGTCCTTTG | 0.992
78 | TGCCCCGACT | 0.998
79 | TTGCCAGCAT | 1.03
80 | TAAGTCGACT | 1.02
81 | GGCGACGTAT | 1.02
82 | GGTAGTCACG | 0.972
83 | ATTGTGTCCC | 1.02
84 | TACAGCTGCT | 0.98
85 | GCTCTTCGGT | 0.977
86 | AGCCTTTCGG | 0.954
87 | GGGGCGATCA | 1.02
88 | AAATATAAG | 0.997
89 | AGGTGGGCTC | 0.945
90 | CAAATCATAC | 1.06
91 | AGAACGTGTA | 0.95
92 | AAACTCTGGA | 1.11

Row | Sequence | switch fluorescence ratio
93 | GTGGGTCTTC | 1.01
94 | AGAGTGGCGA | 1.01
95 | TTCACAAAAT | 0.97
96 | GGGATTGATT | 0.958
97 | GACTTGGCTG | 0.981
98 | AATGAGGACT | 0.955
99 | GCTGTATGGA | 1.04
100 | AAAACTAGCC | 0.99
101 | ACATACGGCG | 1.19
102 | CTCGGTGAA | 1.48
103 | GTGCTGGGGA | 0.99
104 | TTTGAAGACG | 0.991
105 | TTTTCGTGGA | 0.985
106 | GTCGCGTCAG | 0.97
107 | TCCGCACAGT | 2.23
108 | ACGTTCGTCT | 0.995
109 | TGTGGTGGCT | 0.968
110 | CTCATGTTCG | 0.953
111 | GCTTATAATC | 0.979
112 | TTTCAGGGCG | 1.07
113 | GGGTCCTGTG | 1
114 | ATTTCGAGCC | 1.05
115 | AGGTACCAGC | 1.01

Row | Sequence | switch fluorescence ratio
116 | AGAAGTTCAG | 1
117 | GTTACGGCTG | 0.985
118 | GCAATCCTTA | 1.12
119 | TAACAGACAA | 1.08
120 | GCTGGAGTTA | 0.989
121 | AGTAGGTACA | 1.03
122 | GCGTAACAAT | 1.11
123 | AGAAGTAATT | 1.01
124 | ACAGCGTCTT | 0.969
125 | GCTTGCAGTC | 1.01
126 | CCAACATATC | 1.15
127 | ATTGGGGGCA | 0.978
128 | GGTCAGTGGA | 0.961
129 | AGCCCAACAA | 4.76
130 | ATGAGCCCGT | 1.07
131 | CAGATTCGTC | 0.995
132 | GTATGACCTC | 1
133 | GGCTAGGCCT | 0.994
134 | CGAATCTGGA | 1.04
135 | TTTAGAAGT | 0.989
136 | TATTCATGGC | 0.97
137 | GTCATTAAGG | 1.01
138 | CTATCCCAAG | 1.08

Row | Sequence | switch fluorescence ratio
139 | TCATTATTAC | 1.08
140 | GGGGTTTGGC | 0.979
141 | CTGAGGGTGC | 1.01
142 | ATATTTAATA | 0.986
143 | CATGTTAAAT | 0.998
144 | CGTTTCGAGA | 1.01
145 | GTTAGATTTA | 0.963
146 | AGGGTGCTGC | 1.01
147 | TAACTGAAA | 0.943
148 | CTTAAGTAAT | 1.06
149 | GTCGGGGAAA | 0.996
150 | ACCGAGAGAT | 1.04
151 | GATATGGCCA | 1.03
152 | TCTTTGGGAA | 2.16
153 | GTGAGCTGGC | 1.04
154 | TCTCGCGCTT | 1.57
155 | CGGACGCTTG | 1.03
156 | AGCTTCGTGA | 1.03
157 | GTTAGGATAG | 0.982
